Biological target: HCoV-NL63 nsp10-nsp16 complex (Human coronavirus NL63, UniProt P0C6X5)
Assay: biochemical
Details: substrate RNA N7mGpppAUUAAA 0.3 μM, 2 μM 3H-SAM

Chain of HCoV-NL63 nsp10-nsp16 complex (P0C6X5 6430-6729 limits assumed): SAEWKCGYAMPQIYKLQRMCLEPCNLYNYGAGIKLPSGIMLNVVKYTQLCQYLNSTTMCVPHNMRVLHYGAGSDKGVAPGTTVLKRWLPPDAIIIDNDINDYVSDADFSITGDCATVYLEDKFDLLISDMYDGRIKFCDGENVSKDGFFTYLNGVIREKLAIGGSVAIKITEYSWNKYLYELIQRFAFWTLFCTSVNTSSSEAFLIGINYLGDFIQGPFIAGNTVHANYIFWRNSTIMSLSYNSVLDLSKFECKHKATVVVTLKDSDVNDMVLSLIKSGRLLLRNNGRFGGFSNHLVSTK
Chain of HCoV-NL63 nsp10-nsp16 complex (P0C6X5 3909-4043 partner limits assumed): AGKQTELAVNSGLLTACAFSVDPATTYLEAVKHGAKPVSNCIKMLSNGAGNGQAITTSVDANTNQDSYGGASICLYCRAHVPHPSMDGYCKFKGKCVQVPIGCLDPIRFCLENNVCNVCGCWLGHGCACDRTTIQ

SMILES: Nc1ncnc2c1ncn2[C@@H]1O[C@H](CSCC[C@H](N)C(=O)O)[C@@H](O)[C@H]1O [SAH, S-adenosylhomocysteine]
- IC50: 80 ± 10 nM

From PMC9908617 (Biochimica et Biophysica Acta. General Subjects, 2023)
